Results: publication PMC7819943, “Rice protein-binding microarrays: a tool to detect cis-acting elements near promoter regions in rice”
The list shows a part of the results.

Biological target: T1, OsWOX13 (Oryza sativa, UniProt Q5QMM3 1-267)
T1 sequence: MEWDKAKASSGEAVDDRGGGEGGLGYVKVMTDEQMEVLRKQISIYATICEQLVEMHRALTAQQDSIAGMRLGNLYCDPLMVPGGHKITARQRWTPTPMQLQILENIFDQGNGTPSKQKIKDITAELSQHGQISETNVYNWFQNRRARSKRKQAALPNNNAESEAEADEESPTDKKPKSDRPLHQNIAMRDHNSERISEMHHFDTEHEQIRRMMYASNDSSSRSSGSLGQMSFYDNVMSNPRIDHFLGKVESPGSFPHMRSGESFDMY
Assay: protein-binding microarray (RPBM); PBS, 2% BSA, 51.3 ng/ul salmon testes DNA, 50 uM zinc acetate, 200 nM TF, 25 C, 1 h; high values mean tight binding
Conditions: protein: recombinant; tags: N-terminal polyhistidine and DsRed monomer fusion (pET32a); label: CyDye5-dUTP incorporated in the synthesized complementary strand; 3' TTTTT single-stranded linker to array surface; dsDNA, one strand shown
Outline: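 Polyhistidine-tagged DsRed fusions of transcription factors, joined at the N-terminus, were expressed in E. coli BL21-CodonPlus and isolated on Ni–NTA. They were incubated at 200 nM for 1 h at 25 °C on a custom Agilent array, double-stranded and BSA-blocked, in PBS with 2% BSA, salmon testes DNA and 50 µM zinc acetate. The binding signal is per-feature fluorescence intensity (arbitrary units) read on an Axon 4000B scanner after washing.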

Sequence | binding signal
TTGATTGTGAATTTATAATGTTTGGATATAATGATTACTTCGGAGTCACCTAGTGCAG | 34500 fluorescence intensity (a.u.)
ATTGTCCGGACCAATCATTAATCATATCCCAAAGCATGGTCGGAGTCACCTAGTGCAG | 5040 fluorescence intensity (a.u.)
AGCCCATCAATTTAGATAAGGTAATATTGGAGATTATATGCGGAGTCACCTAGTGCAG | 11400 fluorescence intensity (a.u.)
GCCCAATTAAAACCCAATAGAAAGCCCACCTCCATCTCCACGGAGTCACCTAGTGCAG | 3610 fluorescence intensity (a.u.)
GCTAAATTGGATAATTCATCATAGATTTTGCATGAATGATCGGAGTCACCTAGTGCAG | 21200 fluorescence intensity (a.u.)
GAAGTGGGTGAGGAGGGGTGATTGCTCGGGGACGCGTTGCCGGAGTCACCTAGTGCAG | 5090 fluorescence intensity (a.u.)
TCTATAATCACTCTGTACTCTATATTATCTTGATTTTCTGCGGAGTCACCTAGTGCAG | 3150 fluorescence intensity (a.u.)
TTAATTGCCACATTAAAAGTGGCATATAGTTCAAAATCTCCGGAGTCACCTAGTGCAG | 4260 fluorescence intensity (a.u.)
AACTTATTCCGATTAATTAAGCGACGGCTTCCTCCTCAACCGGAGTCACCTAGTGCAG | 7590 fluorescence intensity (a.u.)
GTGATTGAATTTGTCCAGATTCATTGTTCTAGGAAATATCCGGAGTCACCTAGTGCAG | 36100 fluorescence intensity (a.u.)
TTCCTGTAATTTCCTGCTTCTTTTCGCTGCATGCTGCTTGCGGAGTCACCTAGTGCAG | 4070 fluorescence intensity (a.u.)
TACCTCGCGACTAATTGGGCCTCCACTAACACCTAGATTCCGGAGTCACCTAGTGCAG | 4340 fluorescence intensity (a.u.)
CAAATCAATTTCCCTGTCCTAACGCCCAAATGTAATAGTACGGAGTCACCTAGTGCAG | 7130 fluorescence intensity (a.u.)
TGGGGTATCTAGTCAATCATACAATATTTTGTTTTGCTAACGGAGTCACCTAGTGCAG | 7400 fluorescence intensity (a.u.)
ATATCAAATTAGTTTCATTGAATATATTTTGATAATATGTCGGAGTCACCTAGTGCAG | 7170 fluorescence intensity (a.u.)
AAGGTACCAATTAGGAGTAGTTAAAATGTGGGCCAGGTATCGGAGTCACCTAGTGCAG | 3870 fluorescence intensity (a.u.)
ACATTAATTACGAGGACTATTAAGCAAAATCAGAGAAATGCGGAGTCACCTAGTGCAG | 13500 fluorescence intensity (a.u.)
AGCTAATATTTCATAAATTATTCGTGAATCCACGGCTCCACGGAGTCACCTAGTGCAG | 3410 fluorescence intensity (a.u.)
GGATATTAATTCCTCGTAAAATTGTCTCCCTCGACTTGCCCGGAGTCACCTAGTGCAG | 3580 fluorescence intensity (a.u.)
ACCAAATTAATGTAGCAGAACGCAGTACAACCAAATTAAACGGAGTCACCTAGTGCAG | 4280 fluorescence intensity (a.u.)
AACCGTTTGATTGGACTCCAACTTCAGAAAAGGTGAAGCTCGGAGTCACCTAGTGCAG | 22700 fluorescence intensity (a.u.)

Sequence | binding signal
GTTAACTGAATATTATATCGAAGAAAACTTGCATTTCAGACGGAGTCACCTAGTGCAG | 7980 fluorescence intensity (a.u.)
TCTAACAAAACGTAATAATTTTCTTACAGGAATTCTAGTTCGGAGTCACCTAGTGCAG | 4480 fluorescence intensity (a.u.)
ATAACAAGATGATAATTAATTAACTGGTTTCCGCATCAATCGGAGTCACCTAGTGCAG | 34200 fluorescence intensity (a.u.)
TTTTATATTTTAATTAATTACATAATGTAAATATTTCTCACGGAGTCACCTAGTGCAG | 17100 fluorescence intensity (a.u.)
AAAAGGATTAAATTGGCAGTTCATGAAAATGCTTATAGAACGGAGTCACCTAGTGCAG | 9860 fluorescence intensity (a.u.)
TTCCTTGCCAATCTGTCATTCTGATTTCAAGTTGAACATGCGGAGTCACCTAGTGCAG | 14600 fluorescence intensity (a.u.)
GCGAATGATTGGTTATATATCCTTCGGGTTCAAGCAAAGGCGGAGTCACCTAGTGCAG | 37900 fluorescence intensity (a.u.)
CTACCATGATATTATATAATTTCCTTGTCAATTCATATCCCGGAGTCACCTAGTGCAG | 3850 fluorescence intensity (a.u.)
AGCACCACTCATTAATCATTTCCATCACAGGTAAATCGTGCGGAGTCACCTAGTGCAG | 6430 fluorescence intensity (a.u.)
CCGTGCTTAATTAACTACTATTAGGTATGTGGTATTTATACGGAGTCACCTAGTGCAG | 8400 fluorescence intensity (a.u.)
TATAAATTTGTGTCCGGTTTATTGGGTTTGAATTGAATTGCGGAGTCACCTAGTGCAG | 14600 fluorescence intensity (a.u.)
ATATATATATATATATATATATATATATATAGTGGAATGACGGAGTCACCTAGTGCAG | 23500 fluorescence intensity (a.u.)
CAAACTAGATTTGTTGCTAAATTGAATTGTTATGTCATTACGGAGTCACCTAGTGCAG | 22800 fluorescence intensity (a.u.)
ACTAATTATAAATCAGAACGATTTATTAACTACTCAATAACGGAGTCACCTAGTGCAG | 24400 fluorescence intensity (a.u.)
GCTAATCATGGACTAATTAGGCTCAAAAGATTCGTCTCACCGGAGTCACCTAGTGCAG | 28700 fluorescence intensity (a.u.)
AACCTTGATTTGTTCTCCCTAGCTGTAAATAATTTCACAGCGGAGTCACCTAGTGCAG | 31800 fluorescence intensity (a.u.)
ATCTTGATTGGACGGTCCAGATTTCTCCAATTCTGAACAACGGAGTCACCTAGTGCAG | 39300 fluorescence intensity (a.u.)
GTACTTAACCACAAGTGTCAATCATGTCAATCCCTGCTCACGGAGTCACCTAGTGCAG | 16500 fluorescence intensity (a.u.)
TGAAAACTAACAAATTAAAACAAAACATACAGGGCCCATACGGAGTCACCTAGTGCAG | 4750 fluorescence intensity (a.u.)
TTAACCGATAATTAGTATAATATAGATTGAATTATGTTCGCGGAGTCACCTAGTGCAG | 23800 fluorescence intensity (a.u.)
GCCGGGCCTGATTGGGCCGGAATGGGCCGCCTCCGCCGCCCGGAGTCACCTAGTGCAG | 12300 fluorescence intensity (a.u.)

Sequence | binding signal
ACACAATTACACAAACGGTCACCGCGACTGCACGAAGACACGGAGTCACCTAGTGCAG | 3210 fluorescence intensity (a.u.)
CCTTGTCAATTTTCACTCCGTATAAAATAAATAGCTACTTCGGAGTCACCTAGTGCAG | 4240 fluorescence intensity (a.u.)
CAATTAACCCAATCAGCACAAGTCTACATGTCTCCTTCCTCGGAGTCACCTAGTGCAG | 9370 fluorescence intensity (a.u.)
ATGCCCTTCAATTATAACAGGAAGATGTCCAGATTCATAACGGAGTCACCTAGTGCAG | 4400 fluorescence intensity (a.u.)
CTGTCATACATATTATAATTAAATGTAATTATATTTGAAACGGAGTCACCTAGTGCAG | 8220 fluorescence intensity (a.u.)
TCTTGTCATTAATTAATTATTAACGCGGCTAAGGAAATAACGGAGTCACCTAGTGCAG | 23000 fluorescence intensity (a.u.)
TTGAATAATTGATTCATATGTCTTATCATTATTTCTTCTCCGGAGTCACCTAGTGCAG | 44400 fluorescence intensity (a.u.)
TCTGATTATCCTATGCCTGCCGTGTTTAAGTGGTGTGTGTCGGAGTCACCTAGTGCAG | 34600 fluorescence intensity (a.u.)
GGCGACTAATCATGTTCATCACCTGCACACACACAAAATTCGGAGTCACCTAGTGCAG | 6940 fluorescence intensity (a.u.)
AGATTTAATTGTTACGAATACAACGGTGTACTCGGATCGTCGGAGTCACCTAGTGCAG | 20800 fluorescence intensity (a.u.)
TTATATTTTGAATTAGATTAAGTAATTTCATATAGTGGTACGGAGTCACCTAGTGCAG | 3890 fluorescence intensity (a.u.)
ACTGACAGATTTGTAGTTGAGGAATTCAGGGCGTGGTGTACGGAGTCACCTAGTGCAG | 42000 fluorescence intensity (a.u.)
TCCTTAATTGAGCCCATTACCCACATGGGCCGTAGCCCAGCGGAGTCACCTAGTGCAG | 40000 fluorescence intensity (a.u.)
TTTTAACTGGAAATTTGATGATGTAAATTCTTCATAGATTCGGAGTCACCTAGTGCAG | 28800 fluorescence intensity (a.u.)
TACACAAATTGTTTAATCCAAGATCTTTCAATCTTTTCTTCGGAGTCACCTAGTGCAG | 7240 fluorescence intensity (a.u.)
GAGTAATAATCAGCGATCAATAAATACCATCTTCTCCGAGCGGAGTCACCTAGTGCAG | 4210 fluorescence intensity (a.u.)
GCGTAAGGTGATCACCTGATGATTGCAAATTTGGGTGATCCGGAGTCACCTAGTGCAG | 20000 fluorescence intensity (a.u.)
AGATAAATCATACTTAAATTGCTTTTGATAATAAATCAAGCGGAGTCACCTAGTGCAG | 14500 fluorescence intensity (a.u.)
AACCTCTTCAATTACCAAATTTTACAGGGTAACAATGGCACGGAGTCACCTAGTGCAG | 10400 fluorescence intensity (a.u.)
CTGTTCAATCTCATCCGTCTTCTTCCTGATAGCCATCTTCCGGAGTCACCTAGTGCAG | 6470 fluorescence intensity (a.u.)
GAATCACCCAATTGATATCATGAAATTTGTCCAGTGTTTACGGAGTCACCTAGTGCAG | 3360 fluorescence intensity (a.u.)

Sequence | binding signal
GAATTTAATTTGGATTTCGCAATATCCGGACTTTCCAATCCGGAGTCACCTAGTGCAG | 4090 fluorescence intensity (a.u.)
TTTGATGGGAGTTGCGTCATAATCATGAACTTATCAATGGCGGAGTCACCTAGTGCAG | 13500 fluorescence intensity (a.u.)
ATAAATCTATATAATTGTGTGTTCAGATTTATAGCTAAAACGGAGTCACCTAGTGCAG | 6870 fluorescence intensity (a.u.)
ATGATATAATTTCTATTAATCCATATTATTAAATTGCATCCGGAGTCACCTAGTGCAG | 21300 fluorescence intensity (a.u.)
TGGCTTATGATTATGACCTGGAAGTATAACTGTTTCTGGTCGGAGTCACCTAGTGCAG | 5000 fluorescence intensity (a.u.)
CTTGGTCTCTTAATTAGCCATTCAATTTTGTAGTTAAGATCGGAGTCACCTAGTGCAG | 6680 fluorescence intensity (a.u.)
GTGGCATTTAGGTAATTAATTTAGTTTTATTTGTTACCTGCGGAGTCACCTAGTGCAG | 10200 fluorescence intensity (a.u.)
TTAACTTTATAATTTATAAGTTGATTTGTATCTGGATGAACGGAGTCACCTAGTGCAG | 26200 fluorescence intensity (a.u.)
AAATAACGGAAATTAAAATACTATTAAGAGGCTATATCGCCGGAGTCACCTAGTGCAG | 5240 fluorescence intensity (a.u.)
TTCTAAAATTTTAAAGTAACAAATTGCAAGTTATAAACATCGGAGTCACCTAGTGCAG | 3340 fluorescence intensity (a.u.)
TCTTGTGCATAGCATGCGCTGATTGGCCAATATCATATTGCGGAGTCACCTAGTGCAG | 4120 fluorescence intensity (a.u.)
TATAAATTGAAACCATTGAACGTACTTTGTCTTCCCGTCCCGGAGTCACCTAGTGCAG | 31400 fluorescence intensity (a.u.)
GTTCTGATAGATAGACTGATACTGCTACTCTGCATTAGAACGGAGTCACCTAGTGCAG | 41200 fluorescence intensity (a.u.)
ATGGTTTAATTATTGGGTATTTATCATCCAGGCTCATTTACGGAGTCACCTAGTGCAG | 6640 fluorescence intensity (a.u.)
TTGATTGCAGGCACGGTGTTTCATCAGGATCAGTCGTGTCCGGAGTCACCTAGTGCAG | 23600 fluorescence intensity (a.u.)
TAATAATTGATTAAACAGAGCAAATTTTAGCTTGCAGATACGGAGTCACCTAGTGCAG | 48500 fluorescence intensity (a.u.)
CCAATTTAATTTAAGAAATTGTAACTGCCGACCGGGGCGGCGGAGTCACCTAGTGCAG | 16200 fluorescence intensity (a.u.)
TTTTGACGGAATAGATTTAAGAGACAGTTCTCGATCGAGTCGGAGTCACCTAGTGCAG | 15800 fluorescence intensity (a.u.)
TTCGATAATTGCTCAAATACCCTTATTAGGTTTGCATTAACGGAGTCACCTAGTGCAG | 17600 fluorescence intensity (a.u.)
GCCTAAATCTAATTTACTTCTACTCTTTGAAACGGAAAAGCGGAGTCACCTAGTGCAG | 5880 fluorescence intensity (a.u.)
AATAATTAGTGCAGAAAATTTTGACATAAATTTTGAAAATCGGAGTCACCTAGTGCAG | 24700 fluorescence intensity (a.u.)
